Results published in patent US7196085B2, “Phthalazinone derivatives” (KuDOS Pharmaceuticals Limited, priority 2002, dated 2007).

target: Mammalian PARP, isolated from Hela cell nuclear extract (Homo sapiens, UniProt P09874); experiment: PARP inhibition assay (FlashPlate, 3H-NAD incorporation); assay type: biochemical; details: not given
Method: In order to assess the inhibitory action of the compounds, the following assay was used to determine IC50 values.
The total assay volume per well was 40 μl.
After 10 minutes incubation at 30° C. the reactions were initiated by the addition of a 10 μl reaction mixture, containing NAD (5 μM), ^3H-NAD and 30 mer double stranded DNA-oligos. Designated positive and negative reaction wells were done in combination with compound wells (unknowns) in order to calculate % enzyme activities. The plates were then shaken for 2 minutes and incubated at 30° C. for 45 minutes.
Following the incubation, the reactions were quenched by the addition of 50 μl 30% acetic acid to each well. The plates were then shaken for 1 hour at room temperature.
The plates were transferred to a TopCount NXT (TRADE MARK) (Packard, UK) for scintillation counting. Values recorded are counts per minute (cpm) following a 30 second counting of each well.
The % enzyme activity for each compound is then calculated using the following equation: […]
Such IC50 values are used as comparative values to identify increased compound potencies.

UniProt P09874, sequence (P09874 whole entry): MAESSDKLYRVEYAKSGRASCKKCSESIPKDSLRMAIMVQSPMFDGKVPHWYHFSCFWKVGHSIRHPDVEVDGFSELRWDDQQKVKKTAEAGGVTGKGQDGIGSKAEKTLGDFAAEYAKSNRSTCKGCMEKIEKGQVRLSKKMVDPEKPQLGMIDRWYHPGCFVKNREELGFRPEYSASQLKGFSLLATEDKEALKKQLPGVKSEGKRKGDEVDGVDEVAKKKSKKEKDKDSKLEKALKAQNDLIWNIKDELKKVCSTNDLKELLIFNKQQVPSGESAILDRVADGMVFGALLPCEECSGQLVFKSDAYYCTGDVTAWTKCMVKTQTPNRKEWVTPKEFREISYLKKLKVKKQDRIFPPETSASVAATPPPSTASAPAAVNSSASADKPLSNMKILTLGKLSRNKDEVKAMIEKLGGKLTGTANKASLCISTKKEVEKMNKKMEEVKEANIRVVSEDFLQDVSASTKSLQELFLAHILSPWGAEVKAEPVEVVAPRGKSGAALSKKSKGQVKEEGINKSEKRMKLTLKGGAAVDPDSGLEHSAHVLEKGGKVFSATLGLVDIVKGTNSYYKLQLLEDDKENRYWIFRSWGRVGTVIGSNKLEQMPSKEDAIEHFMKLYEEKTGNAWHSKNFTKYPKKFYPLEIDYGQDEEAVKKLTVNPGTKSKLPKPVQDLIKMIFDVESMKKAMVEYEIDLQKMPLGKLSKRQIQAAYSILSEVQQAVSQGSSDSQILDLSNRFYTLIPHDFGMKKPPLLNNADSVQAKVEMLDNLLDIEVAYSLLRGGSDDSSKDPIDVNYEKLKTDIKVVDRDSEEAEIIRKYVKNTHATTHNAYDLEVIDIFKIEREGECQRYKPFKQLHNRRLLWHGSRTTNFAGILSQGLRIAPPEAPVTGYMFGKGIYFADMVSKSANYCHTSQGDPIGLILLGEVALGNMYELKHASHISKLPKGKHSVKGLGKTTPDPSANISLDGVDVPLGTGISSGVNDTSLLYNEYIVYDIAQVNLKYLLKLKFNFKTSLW

**Q.** `O=C1CCC(=O)N1c1cc(Cc2n[nH]c(=O)c3ccccc23)ccc1F` [Example 23, 1-[2-fluoro-5-(4-oxo-3,4-dihydrophalazin-1-ylmethyl)phenyl]pyrrolidine-2,5-dione] was tested. Which IC50 did it give?
**A.** < 30 nM

same assay, conditions: NAD 5 μM, 30° C., 45 minutes; compound 10 to 0.01 μM; read-out: IC50 (concentration at which 50% of the enzyme activity is inhibited)

**Q.** With `CC1=CC(=O)N(c2cccc(Cc3n[nH]c(=O)c4ccccc34)c2)C1=O` [Example 3, 3-methyl-1-[3-(4oxo-3,4-dihydrophthalazin-1-ylmethyl)phenyl]pyrrole-2,5-dione] as the molecule, how does the IC50 read?
**A.** < 30 nM

**Q.** `O=C1C2CCCCC2C(=O)N1c1cccc(Cc2n[nH]c(=O)c3ccccc23)c1` (centres unmarked) [Example 5, 2-[3-(4-oxo-3,4-dihydrophthalazin-1-ylmethyl)phenyl]-3a,4,5,6,7,7a-hexahydroisoindole-1,3-dione] was tested. Which IC50 did it give?
**A.** < 30 nM

**Q.** Which IC50 does the source give for `O=C1C=C(c2ccccc2)C(=O)N1c1cccc(Cc2n[nH]c(=O)c3ccccc23)c1` [Example 7, 1-[3-(4-oxo-3,4-dihydrophthalazin-1ylmethyl)phenyl]-3-phenylpyrrole-2,5-dione] here?
**A.** < 30 nM

**Q.** How did the IC50 turn out when `CC1=C(C)C(=O)N(c2cccc(Cc3n[nH]c(=O)c4ccccc34)c2)C1=O` [Example 11, 3,4-dimethyl-1-[3-(4-oxo-3,4-dihydrophthalazin-1-ylmethyl)phenyl]pyrrole-2,5-dione] was run?
**A.** < 30 nM

**Q.** `O=C1C2CCC2C(=O)N1c1cccc(Cc2n[nH]c(=O)c3ccccc23)c1` (centres unmarked) [Example 13, 3-[3-(4-oxo-3,4-dihydrophthalazin-1-ylmethyl)phenyl]-3-azabicyclo[3.2.0]heptane-2,4-dione] was tested. Which IC50 did it give?
**A.** < 30 nM

**Q.** `O=C1CC(c2ccccc2)C(=O)N1c1cccc(Cc2n[nH]c(=O)c3ccccc23)c1` (centres unmarked) [Example 15, 1-[3-(4-oxo-3,4-dihydrophthalazin-1-ylmethyl)phenyl]-3-phenylpyrrolidine-2,5-dione] was tested. Which IC50 did it give?
**A.** < 30 nM

**Q.** `O=C1C2CC2C(=O)N1c1cccc(Cc2n[nH]c(=O)c3ccccc23)c1` (centres unmarked) [Example 18, 3-[3-(4-oxo-3,4-dihydrophthalazin-1-ylmethyl)phenyl]-3-azabicyclo[3.1.0]hexane-2,4-dione] was tested. Which IC50 did it give?
**A.** < 30 nM

**Q.** Which IC50 does the source give for `CCC/C=C/CC1CC(=O)N(c2cccc(Cc3n[nH]c(=O)c4ccccc34)c2)C1=O` (centres unmarked) [Example 19, 3-hex-2-enyl-1-[3-(4-oxo-3,4-dihydrophthalazin-1-ylmethyl)phenyl]pyrrolidine-2,5-dione] here?
**A.** < 30 nM

**Q.** Which IC50 does the source give for `CC1CC(=O)N(c2cccc(Cc3n[nH]c(=O)c4ccccc34)c2)C1=O` (centres unmarked) [Example 20, 3-methyl-1-[3-(4-oxo-3,4-dihydrophthalazin-1-ylmethyl)phenyl]pyrrolidine-2,5-dione] here?
**A.** < 30 nM

**Q.** How did the IC50 turn out when `CCCCC/C=C/CC1CC(=O)N(c2cc(Cc3n[nH]c(=O)c4ccccc34)ccc2F)C1=O` (centres unmarked) [Example 28, 1-[2-fluoro-5-(4-oxo-3,4-dihydrophthalazin-1-ylmethyl)phenyl]-3-oct-2-enylpyrrolidine-2,5-dione] was run?
**A.** < 30 nM

**Q.** `CCC/C=C/CC1CC(=O)N(c2cc(Cc3n[nH]c(=O)c4ccccc34)ccc2F)C1=O` (centres unmarked) [Example 29, 1-[2-fluoro-5-(4-oxo-3,4-dihydrophthalazin-1-ylmethyl)phenyl]-3-hex-2-enylpyrrolidine-2,5-dione] was tested. Which IC50 did it give?
**A.** < 30 nM

**Q.** With `CCCCCC/C=C/CC1CC(=O)N(c2cc(Cc3n[nH]c(=O)c4ccccc34)ccc2F)C1=O` (centres unmarked) [Example 30, 1-[2-Fluoro-5-(4-oxo-3,4-dihydrophthalazin-1-ylmethyl)phenyl]-3-non-2-enylpyrrolidine-2,5-dione] as the molecule, how does the IC50 read?
**A.** < 30 nM

**Q.** How did the IC50 turn out when `O=C1CN(Cc2ccccc2)CC(=O)N1c1cc(Cc2n[nH]c(=O)c3ccccc23)ccc1F` [Example 31, 4-benzyl-1-[2-fluoro-5-(4-oxo-3,4-dihydrophthalazin-1-ylmethyl)phenyl]piperazine-2,6-dione] was run?
**A.** < 30 nM

**Q.** With `O=C1CC2(CCCC2)C(=O)N1c1cc(Cc2n[nH]c(=O)c3ccccc23)ccc1F` [Example 32, 2-[2-fluoro-5-(4-oxo-3,4-dihydrophthalazin-1-ylmethyl)phenyl]-2-azaspiro[4.4]nonane-1,3-dione] as the molecule, how does the IC50 read?
**A.** < 30 nM

**Q.** `O=C1CC(Cc2ccccc2)C(=O)N1c1cc(Cc2n[nH]c(=O)c3ccccc23)ccc1F` (centres unmarked) [Example 33, 3-benzyl-1-[2-fluoro-5-(4-oxo-3,4-dihydrophthalazin-1-ylmethyl)phenyl]pyrrolidine-2,5-dione] was tested. Which IC50 did it give?
**A.** < 30 nM

**Q.** For `O=C(N[C@H]1CC(=O)N(c2cc(Cc3n[nH]c(=O)c4ccccc34)ccc2F)C1=O)OCc1ccccc1` [Example 35, (S)-3-benzyloxycarbonylamino-1-[2-fluoro-5-(4-oxo-3,4-dihydrophthalazin-1-ylmethyl)phenyl]pyrrolidine-2,5-dione], which IC50 is on record?
**A.** < 30 nM

**Q.** With `O=C1CNCC(=O)N1c1cc(Cc2n[nH]c(=O)c3ccccc23)ccc1F` [Example 37, 1-[2-fluoro-5-(4-oxo-3,4-dihydrophthalazin-1-ylmethyl)phenyl]piperazine-2,6-dione] as the molecule, how does the IC50 read?
**A.** < 30 nM

**Q.** For `O=C1CC(c2ccccc2)C(=O)N1c1cc(Cc2n[nH]c(=O)c3ccccc23)ccc1Cl` (centres unmarked) [Example 39, 1-[2-chloro-5-(4-oxo-3,4-dihydrophalazin-1-ylmethyl)phenyl]-3-phenylpyrrolidine-2,5-dione], which IC50 is on record?
**A.** < 30 nM

**Q.** How did the IC50 turn out when `O=C1C2CC2C(=O)N1c1cc(Cc2n[nH]c(=O)c3ccccc23)ccc1Cl` (centres unmarked) [Example 41, 3-[2-chloro-5-(4-oxo-3,4-dihydrophthalazin-1-ylmethyl)phenyl]-3-azabicyclo[3.1.0]hexane-2,4-dione] was run?
**A.** < 30 nM

**Q.** How did the IC50 turn out when `O=C1CCCC(=O)N1c1cc(Cc2n[nH]c(=O)c3ccccc23)ccc1Cl` [Example 42, 1-[2-chloro-5-(4-oxo-3,4-dihydrophalazin-1-ylmethyl)phenyl]piperidine-2,5-dione] was run?
**A.** < 30 nM

**Q.** For `COc1ccc(Cc2n[nH]c(=O)c3ccccc23)cc1N1C(=O)CCC1=O` [Example 43, 1-[2-methoxy-5-(4-oxo-3,4-dihydrophalazin-1-ylmethyl)phenyl]pyrrolidine-2,5-dione], which IC50 is on record?
**A.** < 30 nM

**Q.** `O=c1[nH]ncc2ccccc12` [Example 100, 1(2H)-phthalazinone, reference compound] was tested. Which IC50 did it give?
**A.** 7200 nM
